# According to PubChem BioAssay AID588591 (National Center for Advancing Translational Sciences (NCATS), 2011):
# Hit rate of the full screen: of about 390,000 compounds, about 4,700 (1.2%) were called active. This list was built around the results that the source calls inconclusive (neither active nor inactive); the mix of calls is not that of the screen. The call rests on the fitted dose curve; in most records, active means well fitted inhibition curve with a large enough effect; inconclusive means small, poorly fitted or top-dose-only effect, or another doubt; inactive means no such curve, though single readings can be large or run the other way. Potencies beside an inconclusive call are fits to weak or partial responses and may not hold up.
# Target: DNA polymerase eta (Homo sapiens) (UniProt Q9Y253)
# UniProt Q9Y253, sequence (Q9Y253 whole entry, looked up): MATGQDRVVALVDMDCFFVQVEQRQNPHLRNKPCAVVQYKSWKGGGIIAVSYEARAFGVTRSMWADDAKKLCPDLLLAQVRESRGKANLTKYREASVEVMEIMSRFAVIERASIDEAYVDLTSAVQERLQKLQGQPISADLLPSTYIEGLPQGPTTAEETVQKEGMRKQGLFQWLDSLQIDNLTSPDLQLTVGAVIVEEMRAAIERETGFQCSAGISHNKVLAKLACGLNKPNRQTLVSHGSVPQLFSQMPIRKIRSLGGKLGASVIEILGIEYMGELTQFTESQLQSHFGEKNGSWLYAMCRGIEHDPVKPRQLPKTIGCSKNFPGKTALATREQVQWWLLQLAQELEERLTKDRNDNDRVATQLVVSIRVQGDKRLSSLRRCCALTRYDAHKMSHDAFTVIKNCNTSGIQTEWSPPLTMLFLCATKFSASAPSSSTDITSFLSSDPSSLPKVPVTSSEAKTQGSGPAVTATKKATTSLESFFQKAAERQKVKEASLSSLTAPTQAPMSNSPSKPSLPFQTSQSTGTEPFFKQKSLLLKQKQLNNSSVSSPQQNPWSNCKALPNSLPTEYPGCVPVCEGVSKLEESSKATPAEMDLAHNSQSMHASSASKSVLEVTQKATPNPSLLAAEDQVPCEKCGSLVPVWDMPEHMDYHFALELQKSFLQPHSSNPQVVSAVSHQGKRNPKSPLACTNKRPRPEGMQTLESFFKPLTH
# Test: qHTS for Inhibitors of Polymerase Eta
# Settings: recombinant Pol eta, fluorescent DNA replication assay; series mostly up to 114 µM; activity change, negative = inhibition: at the top concentration
# Outline: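 Pol eta at 10 nM preincubated with compounds 15 min at room temperature; reaction started with fluorescent substrate (50 nM final) and read kinetically at 0 and 10 min.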
# On the % scale 0 is the no-effect control and ±100 the full control effect; potency means the concentration at half of the fitted maximal effect; tags describe the fitted curve by direction and shape.
SMILES,Potency,"activity change, negative = inhibition"
CC1CCCC(C)N1C(=O)COC(=O)c1ccc([N+](=O)[O-])o1 (stereo not given),active: 50.1 µM,
N#Cc1c(N)oc(-c2ccc3c(c2)OCO3)c1-c1ccc2c(c1)OCO2,"inconclusive: 31.6 µM [inhibitor, single point]",
CC1CCN(CCNC(=O)c2ccc(Cn3c(SCc4ccccc4)nc4cccnc43)cc2)CC1,,inactive: -3.33%
CC(/C=C1\N=C(SCc2ccccc2Cl)SC1=O)=C\c1ccccc1,"inconclusive: 89.1 µM [inhibitor, single point]",
O=c1c2sc3ccccc3c2n(Cc2ccccc2F)c(=O)n1CCc1ccccc1,,inactive: -6.9%
O=C(CN1C(=O)NC2(CCOc3ccccc32)C1=O)c1ccc[nH]1 (stereo not given),"inconclusive: 39.8 µM [inhibitor, partial curve, poor fit]",
Cc1cc(N2CCN(C(c3ccccc3)c3ccc(Cl)cc3)CC2)n2ncnc2n1 (stereo not given),"inconclusive: 89.1 µM [inhibitor, partial curve, poor fit]",
CC(/C=N/NC(=O)Cc1cccs1)=C\c1ccco1,"inconclusive: 39.8 µM [inhibitor, single point]",
COc1ccc([N+](=O)[O-])cc1NC(=O)CSc1nc(C)cc(C)n1,"inconclusive: 31.6 µM [inhibitor, single point]",
Cc1ccc(C)c(S(=O)(=O)c2nnn3c2nc(NCc2ccc4c(c2)OCO4)c2sccc23)c1,,inactive: -9.52%
CCOc1cc(C2c3c(oc4ccccc4c3=O)C(=O)N2c2nccs2)ccc1O (stereo not given),"inconclusive: 28.2 µM [inhibitor, partial curve, poor fit]",
CCCCNC(=O)c1c[nH]c2ccc(S(=O)(=O)Nc3ccc(OCC)cc3)cc2c1=O,"inconclusive: 25.1 µM [inhibitor, partial curve, poor fit]",
Cc1ccc(Nc2nnc(SC/C(O)=C(\C#N)c3nc4ccccc4[nH]3)s2)c(C)c1,active: 31.6 µM,
Cc1cccc2cc(CN(CCCO)C(=O)Nc3ccc(Cl)cc3)c(=O)[nH]c12,,inactive: 1.76%
O=c1c2cc(-c3ccccc3)sc2ncn1/N=C/c1ccco1,,inactive: -9.44%
Cc1ccn2c(=O)nc(SCC(=O)N3CCC(Cc4ccccc4)CC3)nc2c1,"inconclusive: 50.1 µM [inhibitor, partial curve]",
Cc1nnc(SCC(=O)NCc2ccccc2F)c2nn(-c3ccc(Cl)cc3)c(C)c12,"inconclusive: 79.4 µM [inhibitor, partial curve, poor fit]",
Cc1ccc(-c2c(C(=O)NCCc3ccc(Cl)cc3)oc(=O)c3ccccc23)cc1,"inconclusive: 70.8 µM [inhibitor, partial curve, poor fit]",
O=c1nc2s/c(=C\c3ccco3)c(=O)n2nc1Cc1ccccc1,active: 17.8 µM,
O=C(CCS(=O)(=O)c1ccc2c(c1)NC(=O)CO2)Nc1cccc(C(F)(F)F)c1,,inactive: -17.6%
CCNC(=O)CC1C(=O)N(c2ccc(C)cc2)C(=O)N1Cc1ccc(C)cc1 (stereo not given),,inactive: -7.54%
CCOc1ccccc1C(=O)N[C@H](C(=O)Nc1ccc(OC)c(S(=O)(=O)N2CCOCC2)c1)C(C)C,"inconclusive: 0.562 µM [inhibitor, full curve, poor fit]",
Cn1c(/C=C/c2ccccc2[N+](=O)[O-])nc2ccccc2c1=O,,inactive: -2.05%

SMILES,Potency,"activity change, negative = inhibition"
CCCN1C(=O)/C(=C/C=C2\N(CC)c3ccccc3C2(C)C)SC1=S,active: 56.2 µM,
COc1cc(/C=N/Nc2ccc(C(=O)O)cc2)ccc1O,active: 22.4 µM,
CCCCn1c(/C=C/c2ccco2)nc2ccccc21,"inconclusive: 39.8 µM [inhibitor, partial curve, poor fit]",
Cc1ccc(OCC(=O)NNC(=O)CSc2ncc(C#N)c(N)n2)cc1,"inconclusive: 25.1 µM [inhibitor, partial curve]",
Cc1c(CCC(=O)N2CCC(C(=O)O)CC2)c(=O)oc2cc3oc4c(c3cc12)CCCC4,,inactive: 7.72%
O=C1C(=Cc2ccc(Br)o2)C(=O)c2ccccc21,active: 0.794 µM,
CCOC(=O)c1ccc(NC(=O)Cc2ccc(-n3c(CC)nc4cccnc43)cc2)cc1,,inactive: 9.1%
Cc1ccc(C(=O)O)cc1NC(=O)Nc1cccc2ccccc12,,inactive: -9.8%
O=C(O)CCc1ccc(-c2cccs2)n1NC(=O)c1ccc(O)cc1,active: 89.1 µM,
COc1ccc(-c2csc(NC(=S)NC(=O)c3cccs3)n2)cc1Br,,inactive: -8.03%
COc1ccc2cc(C(=O)Nc3ccccc3)sc(=O)c2c1OC,"inconclusive: 20 µM [inhibitor, single point]",
Cc1ccc(CSc2cc(C)[nH]c(=O)n2)cc1,"inconclusive: 50.1 µM [inhibitor, partial curve]",
CCCC[n+]1ccn(-c2nc3ccccc3nc2[N-]S(=O)(=O)c2ccc(Br)cc2)c1,"inconclusive: 14.1 µM [inhibitor, partial curve, poor fit]",
Cc1csc(NC(=O)Cc2coc3cc(C)c(C(C)C)cc23)n1,"inconclusive: 50.1 µM [inhibitor, partial curve, poor fit]",
CCCCOc1ccc(C(=O)OCC(=O)N2CCCCCC2)cc1,"inconclusive: 79.4 µM [inhibitor, partial curve, poor fit]",
COC(=O)c1cc(C(=O)OC)cc(N2C(=O)CC(NNC(=O)c3ccccc3Br)C2=O)c1 (stereo not given),,inactive: -3.44%
COc1ccccc1N1CCN(C(=O)c2oc3ccc(F)cc3c2C)CC1,"inconclusive: 100 µM [inhibitor, partial curve, poor fit]",
Cc1ccc(-c2c3c(=O)n(C)c(=O)n(C)c3c3c(C(F)(F)F)nc4ccccc4n23)cc1,,inactive: -9.67%
CCc1sc(C(=O)Nc2ccc3c(c2)OCO3)cc1C,"inconclusive: 28.2 µM [inhibitor, partial curve, poor fit]",
O=C(CC1C[C@H](C(=O)N2CCCCC2)[C@@]2(CCc3ccccc3)c3[nH]c4ccccc4c3CCN2C1=O)NCCc1ccccn1 (stereo not given in full),,inactive: -17.1%
Nc1nc2c(c(=O)[nH]1)CN(Cc1ccccc1)CC2,,inactive: -20.5%
Cc1ccc(CCNc2nc3c(S(=O)(=O)c4ccc(C)cc4)nnn3c3ccsc23)cc1,,inactive: -18.8%
